# Reference: the supplement of paper PMC3334620
# Over roughly 33,000 sequences, “E-score (-0.5 to 0.5)” has its median near -0.013; the highest 2% begin near 0.3. The list shows a part of the results.
# Biological target: T1, Msn1 (UniProt P22148)
# T1 sequence: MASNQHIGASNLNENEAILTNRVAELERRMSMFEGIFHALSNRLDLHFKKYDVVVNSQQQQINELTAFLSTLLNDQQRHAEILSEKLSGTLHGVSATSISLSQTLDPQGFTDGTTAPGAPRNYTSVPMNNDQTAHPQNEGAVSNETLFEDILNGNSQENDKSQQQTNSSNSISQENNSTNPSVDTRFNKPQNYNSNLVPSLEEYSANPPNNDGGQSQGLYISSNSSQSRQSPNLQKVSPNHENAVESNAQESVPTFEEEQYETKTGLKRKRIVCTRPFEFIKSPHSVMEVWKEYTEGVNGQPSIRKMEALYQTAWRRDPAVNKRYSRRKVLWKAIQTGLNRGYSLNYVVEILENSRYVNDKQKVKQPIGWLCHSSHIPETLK
# Assay: PBM E-score (8-mer binding enrichment) (E-score (-0.5 to 0.5)); higher = stronger / more preferred TF binding; most listed sequences are background and not binding sites
# Settings: protein concentration: 200 nM; construct: GST-full length
# Outline: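 Yeast transcription factors, full-length or as DNA-binding domains, were expressed with a GST tag using PURExpress in vitro transcription/translation. At about 100-200 nM they were applied to universal all-10-mer Agilent arrays, double-stranded by primer extension on fresh or once-stripped slides. Fluorescent anti-GST detected bound protein, and masliner normalised the scans. E-scores for ungapped eight-base words, pooled with reverse complements, came from the Universal PBM Analysis Suite.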
row,Sequence,PBM E-score
1,AATGGTCT,-0.108
2,AGCATGAA,-0.0305
3,GGGCAAGA,0.21
4,ACTCAGCG,-0.0293
5,GCGTACAA,0.0505
6,CACGGCTC,-0.0257
7,ACTATGCG,-0.0367
8,ACGCATCC,-0.157
9,CAGCGTGG,-0.0889
10,CCTTTTGA,0.183
11,ATTTGGTC,0.124
12,ACATAACC,0.0931
13,AACCAACT,-0.00361
14,GTAGAGAC,-0.083
15,CACTACCA,0.0209
16,AAGTGTGC,0.0122
17,GCTGTTAC,-0.109
18,GGTCTAAC,-0.0445
19,GCCTGGTA,-0.0759
20,ACCACACG,-0.164
21,CATGGAGG,-0.156
22,CTAGCGCC,-0.234
23,CGGCTATA,0.0929
24,AACCCCTT,-0.282
25,TCGATTAA,0.186

row,Sequence,PBM E-score
1,AGTGCGCC,-0.0471
2,CAAGCACC,-0.209
3,CTTACCTA,-0.116
4,GACTCGAC,0.00452
5,CTCCAAAA,-0.0226
6,GCCGAGAA,0.0461
7,AGTTTCTA,-0.0256
8,CTTTCAGC,-0.0883
9,TAGTGGCA,-0.158
10,AAAGGCAG,0.0441
11,TCAACGGA,-0.0103
12,CAACGATC,-0.102
13,ATCATCGA,0.015
14,ATAGAACG,0.127
15,TACGCAAA,-0.175
16,AGTCGAGA,0.0774
17,AATTAGAC,0.241
18,ATTGGTCA,0.0406
19,AGGAGCGA,0.00946
20,ATCCGGCA,-0.0839
21,ATGACTAG,0.157
22,AGATATCG,-0.22
23,AGGGACCG,-0.215
24,CGACGGGA,0.0248
25,AGTAGTAA,0.0664

row,Sequence,PBM E-score
1,CTCTTGAA,-0.127
2,CACTGTGA,-0.0912
3,AGCTGATC,0.00591
4,GCGATTCA,-0.0661
5,CTCTCGAC,-0.21
6,GCCCTCTA,-0.279
7,AGCATAAT,0.036
8,ACGCTCAG,-0.142
9,GCAGGGCA,0.0279
10,AAAACATG,0.0405
11,CAGTTACA,0.0424
12,GAATCCCC,-0.101
13,CACATCCG,0.149
14,GCAAGAGC,-0.0224
15,CGATGACG,-0.158
16,GCCAGTCA,-0.117
17,ACTCAGTC,-0.168
18,CGGTACAG,0.054
19,CCGATCTC,-0.0555
20,AGTGAATC,-0.0274
21,CGGTTAAG,0.0511
22,AAGGACCT,0.0694
23,CGACTAAC,0.138
24,GAACCCCA,-0.208
25,CCCATTCA,-0.0619

row,Sequence,PBM E-score
1,ACTTGAAA,0.185
2,ACCGATGA,-0.0281
3,ATACAACC,0.103
4,CGTTTGGC,-0.0774
5,ATGGCCGC,-0.176
6,AGGTTGTG,-0.0559
7,CACGTAGA,0.0124
8,CCGGGTCA,-0.161
9,CAGAAAGA,-0.00119
10,CACATTTA,0.15
11,TGAAATCA,0.0301
12,CCTACCAG,-0.277
13,GCATACTA,-0.0617
14,CCTAGCTA,-0.181
15,AACAAGGA,0.156
16,CCTGGGCG,-0.243
17,GGAGCTCC,-0.202
18,ATTTATCG,0.188
19,CGAGTGCC,-0.099
20,ACCGTTAA,0.0724
21,GAGTTTGA,0.113
22,ACCTGGCC,-0.0546
23,CATATACG,0.116
24,ACGGAAAC,0.0387
25,CGTTCATA,-0.00678

row,Sequence,PBM E-score
1,CAACCTGA,-0.18
2,CACGATAA,0.107
3,CATGCCGC,0.209
4,ACATCTTC,0.166
5,AAGAGGCT,-0.242
6,GGTCGGCA,-0.115
7,GATCGCGC,-0.0341
8,TCCCTAGA,0.101
9,AACCGTGG,-0.198
10,ACCCAGTA,-0.153
11,CCGCGCGC,0.0959
12,ACGAACGG,0.118
13,AATAGAGA,-0.00173
14,CAAGCGAG,0.0504
15,CATCCCCA,-0.264
16,GCATAGAA,0.00819
17,CATTAATA,0.248
18,ACGTCTCG,0.167
19,GTGGAGTA,0.0228
20,ATGTGCAC,-0.0881
21,AGAGTCCC,-0.189
22,AAGCAGCT,-0.0124
23,CTGCTGCC,-0.23
24,GGTAGACA,0.0726
25,ATCTCTTA,0.0525

row,Sequence,PBM E-score
1,AGGTGAAG,-0.0722
2,TGTCGACA,0.113
3,GTACATAA,0.306
4,ACTGCAGC,-0.228
5,ATCGGCAA,-0.0118
6,ACCGCCAC,-0.117
7,AAGGAATT,0.141
8,GCCGCCCC,-0.239
9,ATTTACAG,0.0279
10,AAGTGTCT,0.257
11,AAAGAGTC,-0.0782
12,GCACCGCA,-0.212
13,ACAGATTC,0.169
14,CCAGCCAG,-0.312
15,AGATATTA,0.0256
16,TACCTTCA,-0.0437
17,GCGATCCA,-0.171
18,AGACGCCA,-0.148
19,CCGCTTAA,-0.0375
20,ACCTGGGG,-0.332
21,CGACGCCC,-0.093
22,TAAGAGTA,0.0785
23,CCAGAGGC,-0.286
24,CTGCATTA,-0.203
25,CATGATCA,0.15

row,Sequence,PBM E-score
1,AGGCTATA,-0.0785
2,GGACTGGA,0.0295
3,GATCAAGA,0.112
4,AACGCGGG,0.104
5,AATGAAAC,0.153
6,CACCGAGG,-0.142
7,CATCAGCC,-0.177
8,ACCTCCTG,-0.169
9,AAACTCGG,0.208
10,ACCCTGGG,-0.212
11,ACAAATTA,0.357
12,ATGGGTCA,0.0193
13,AGTGCATA,-0.146
14,ATCTCCCC,-0.331
15,GGTTCGAC,-0.0812
16,CAACCATC,-0.177
17,ACTACGCA,-0.18
18,AACGGGCC,-0.177
19,CAGAGAGC,-0.315
20,TGACACAA,0.183
21,CCATCCCA,-0.179
22,AATGTGTC,0.3
